PubChem BioAssay AID1645887 (National Center for Advancing Translational Sciences (NCATS), 2021)
Several values for one entry are separate records, joined by “and”; a condition that tells them apart may be missing. Identical values can stand only once. In all, about 16,000 compounds went through this assay and about 40 (0.2%) were called active. Inconclusive results (about 1%) are left out. Calls follow the shape of the dose curve; as a rule, active = well fitted activation curve with a large enough effect; inconclusive = small, poorly fitted or top-dose-only effect, or another doubt; inactive = no such curve, though single readings can be large or run the other way. This is one part of the list.

Target: Rap guanine nucleotide exchange factor 4 (Homo sapiens) (UniProt Q8WZA2)
Chain of UniProt Q8WZA2 (Q8WZA2 whole entry, looked up): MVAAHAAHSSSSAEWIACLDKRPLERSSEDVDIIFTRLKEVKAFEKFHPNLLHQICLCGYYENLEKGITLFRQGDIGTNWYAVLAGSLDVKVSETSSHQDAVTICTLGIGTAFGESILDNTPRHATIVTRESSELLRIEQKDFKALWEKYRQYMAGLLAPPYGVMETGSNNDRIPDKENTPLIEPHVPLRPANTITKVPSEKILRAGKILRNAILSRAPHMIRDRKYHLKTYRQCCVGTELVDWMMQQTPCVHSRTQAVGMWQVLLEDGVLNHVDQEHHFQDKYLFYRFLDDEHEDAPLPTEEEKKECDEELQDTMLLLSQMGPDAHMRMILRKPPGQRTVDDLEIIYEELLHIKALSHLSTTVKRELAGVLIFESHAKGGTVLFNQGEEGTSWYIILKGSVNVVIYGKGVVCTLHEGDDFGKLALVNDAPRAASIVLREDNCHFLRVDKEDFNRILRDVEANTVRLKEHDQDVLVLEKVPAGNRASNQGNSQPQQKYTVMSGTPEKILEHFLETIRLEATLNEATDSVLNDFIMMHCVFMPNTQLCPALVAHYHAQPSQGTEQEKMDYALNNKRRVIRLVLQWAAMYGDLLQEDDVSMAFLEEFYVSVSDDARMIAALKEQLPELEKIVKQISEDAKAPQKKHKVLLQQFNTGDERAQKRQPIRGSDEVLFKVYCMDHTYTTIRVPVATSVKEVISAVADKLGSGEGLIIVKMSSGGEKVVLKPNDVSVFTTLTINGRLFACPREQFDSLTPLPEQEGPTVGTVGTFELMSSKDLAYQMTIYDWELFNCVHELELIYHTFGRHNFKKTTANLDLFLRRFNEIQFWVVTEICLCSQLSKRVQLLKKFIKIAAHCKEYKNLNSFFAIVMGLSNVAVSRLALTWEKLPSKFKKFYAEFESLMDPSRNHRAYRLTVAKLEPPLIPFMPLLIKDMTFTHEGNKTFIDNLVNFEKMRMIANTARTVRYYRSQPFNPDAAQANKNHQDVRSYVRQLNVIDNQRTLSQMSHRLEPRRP
Experiment: Validation qHTS for agonist of cAMP-regulated guanine nucleotide exchange factor 4 (EPAC2);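 also: exchange makes BODIPY-GDP fluorescence drop when released from Rap1B; series mostly up to about 150 µM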
Settings: EPAC2 Rap1B BODIPY-GDP exchange, fluorescence; activation: active compounds read high
Summary of the method: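 Fluorescent exchange assay: 100 nM EPAC2 with 250 nM RAP1B-BODIPY-GDP and 50 uM GDP; compound added, 5 min at room temperature, then read (ex 480/em 540 nm) every 5 min for 30 min. Normalized to 6.5 mM cAMP agonist control.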
% is scaled to controls: 0 for no effect and ±100 for the full control effect.

activation, inactive:
O=C(c1ccncc1)N1CCC2(CC1)CN(c1ccccn1)C2 -28.7%, CO[C@@]1(NC(=O)CSCC#N)C(=O)N2C(C(=O)O)=C(CSc3nnnn3C)CSC21 (some centres undefined) 7.69%, COc1ccc(CN2CCCC(c3nc(C)ncc3-c3ccc(F)cc3)C2)c(OC)c1OC (centres undefined) 6.72%, O=C(O)C1CN(CCCP(=O)(O)O)CCN1 (centres undefined) -7.12%, Cc1noc(C)c1C(=O)N1CCC2(CCCN(c3ccncc3)C2)CC1 -1.09%, CCOC(N)=O -12.2%, Oc1cccc2c(CC(O)c3c[nH]c4ccccc34)ccnc12 (centres undefined) -10.7%, CC(CCC(=O)O)C1CCC2C3CC[C@H]4CC(O)CC[C@@]4(C)C3CC[C@@]12C (some centres undefined) -3.73%, COc1ccccc1-c1cc(NCc2cccs2)ncn1 7.98%, Cc1ccccc1-c1ccc2ncnc(N3CCNCC3)c2c1 2.81%, O=C(NCCNC[C@@H](O)COc1ccc(O)cc1)N1CCOCC1 -14.2%, O=c1cc(-c2ccc(O)c(O)c2)oc2cccc(O)c12 -4.89%, O=C1c2ccccc2C(=O)c2cc(Cn3cc(-c4cccc(C(F)(F)F)c4)nn3)ccc21 -18.6%, CC(=O)O[C@@H]1CC2C(C)(C)C(=O)C=C[C@]2(C)C2CC[C@]3(C)C(=CC[C@H]3C3CO[C@@H](C(C)(C)O)[C@H](O)C3)[C@@]21C (some centres undefined) -20.7%, C[C@H](NCCc1ccc(O)cc1)[C@H](O)c1ccc(O)cc1 6.1%, N[C@H](C(=O)O)c1ccc(C(=O)O)c(O)c1 -7.35% and -1.36%, COCC(=O)Nc1cc(C(=O)N2CCc3ccccc3C2)c2c(c1)nc(-c1ccncc1)n2C -0.31%, COc1ccccc1CNC(=O)c1cnn(-c2nccc(-c3cccs3)n2)c1C 0.165%, COc1cccc(Nc2ncc3ncc(=O)n(Cc4cccs4)c3n2)c1 24.4%, O=c1c(-c2ccccc2)nc2cnc(Oc3cccc(Cl)c3)nc2n1C[C@H]1CCCO1 -13%, O=C(C1CCCCC1)N1CCOc2ccc(CN3CCN(Cc4ccccn4)CC3)cc2C1 -0.718%, CC(C)NNC(=O)c1ccncc1 -10.8% and 1.97%, Cc1[nH]c2c(C(=O)NCC3Cc4cccc(-c5cccnc5)c4O3)cccc2c1C (centres undefined) 5.59%, Cc1ccc(C)c(CN2CCC3(CCC(CNC(=O)c4ccnn4C)O3)CC2)c1 (centres undefined) -10.1%
